# Measurements reported in PubChem BioAssay AID588342 (National Center for Advancing Translational Sciences (NCATS), 2011).
# The whole screen tested about 360,000 compounds, of which about 25,000 (6.9%) were called active. Inconclusive results, whose numbers are uncertain, are shown with a selection of clear calls. The call rests on the fitted dose curve; in most records, active means well fitted inhibition curve with a large enough effect; inconclusive means small, poorly fitted or top-dose-only effect; inactive means flat fitted curve, though single readings scatter. Potencies beside an inconclusive call are fits to weak or partial responses and may not hold up.
# Biological target: Luciferin 4-monooxygenase (Photinus pyralis) (UniProt P08659)
# Sequence of UniProt P08659 (P08659 whole entry, looked up): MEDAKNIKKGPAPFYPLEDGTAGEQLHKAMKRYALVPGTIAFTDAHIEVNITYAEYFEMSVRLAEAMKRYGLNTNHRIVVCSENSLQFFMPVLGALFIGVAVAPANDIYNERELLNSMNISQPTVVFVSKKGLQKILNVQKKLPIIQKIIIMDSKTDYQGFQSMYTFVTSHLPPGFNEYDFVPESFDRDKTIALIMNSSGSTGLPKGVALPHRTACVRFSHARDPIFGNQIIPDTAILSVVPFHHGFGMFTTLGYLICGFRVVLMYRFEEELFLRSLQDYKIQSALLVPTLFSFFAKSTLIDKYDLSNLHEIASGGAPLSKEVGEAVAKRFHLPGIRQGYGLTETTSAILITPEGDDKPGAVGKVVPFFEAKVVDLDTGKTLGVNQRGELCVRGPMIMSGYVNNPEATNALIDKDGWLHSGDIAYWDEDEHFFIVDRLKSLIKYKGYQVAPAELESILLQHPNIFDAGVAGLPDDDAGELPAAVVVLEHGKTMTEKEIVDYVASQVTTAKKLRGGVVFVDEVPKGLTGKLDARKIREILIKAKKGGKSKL
# Assay: qHTS profiling assay for firefly luciferase inhibitor/activator using purifed enzyme and Km concentrations of substrates (counterscreen for miR-21 project); further: nearly all actives have a fitted effect of over 55% in size;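 on activity change, negative = inhibition: plate controls were vehicle for no effect and reference inhibitor for full effect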
# Settings: purified FLuc, luminescence inhibition; activity change, negative = inhibition: at 57.5 µM (top of the series)
# In short: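 Purified P. pyralis luciferase, 10 nM final, with Km-level 10 uM D-luciferin and 10 uM ATP in 50 mM Tris acetate pH 7.5, 10 mM Mg acetate, 0.01% Tween-20, 0.05% BSA; 6-point qHTS titration about 60 µM downward; luminescence read.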
# Potency means the concentration at half of the fitted maximal effect; tags describe the fitted curve by direction and shape.
SMILES,Potency,"activity change, negative = inhibition"
NC(=O)C1CCN(c2nc(-c3ccccc3Br)cs2)CC1,"inconclusive: 21.3 µM [inhibitor, partial curve, poor fit]",
COc1ccc(N(Cc2cccs2)C(=O)c2ccc(Br)o2)cc1,"inconclusive: 30.1 µM [inhibitor, partial curve, poor fit]",
Cc1ccc(NC(=S)Nc2cccc3ccccc23)cc1,"inconclusive: 26.9 µM [inhibitor, partial curve, poor fit]",
c1ccc(CNc2ncnc3sccc23)cc1,,inactive: 2.99%
COc1ccc(-c2cc(C(=O)O)c(C)o2)cc1OC,active: 1.69 µM,
O=C(Cc1cccs1)NCc1cc(Cl)cc(Cl)c1,"inconclusive: 37.9 µM [inhibitor, partial curve, poor fit]",
O=C(NN1CCOCC1)c1cccc(COc2cccc(Br)c2)c1,"inconclusive: 30.1 µM [inhibitor, single point]",
Cc1ccc(-c2nc3ccccc3s2)cc1NC(=O)COc1ccccc1,,inactive: -1.34%
CCOC(=O)c1cccc(NC(=O)CCc2c(C)nn(-c3ccc(N4CCCC4)nn3)c2C)c1,"inconclusive: 23.9 µM [inhibitor, partial curve, poor fit]",
CC1=C(C(=O)Nc2ccccn2)C(c2ccccc2Cl)NC(=S)N1 (stereo unspecified),"inconclusive: 23.9 µM [inhibitor, partial curve]",
CCCN(CCC)CCNC(=O)CN1C(=O)COc2ccc(S(=O)(=O)N3CCC(C)CC3)cc21,,inactive: -2.21%
O=c1[nH]c2ccccc2nc1-c1c[nH]c2ccccc12,"inconclusive: 19 µM [inhibitor, partial curve]",
O=C(N/N=C/c1cccc(OC(=O)c2cccc(Br)c2)c1)c1ccncc1,"inconclusive: 37.9 µM [inhibitor, single point]",
C=CCn1c(=S)[nH]c2cc(-c3ccccc3)sc2c1=O,active: 1.9 µM,
Nc1cc(S(=O)(=O)N2CCOCC2)ccc1Oc1cccc(Br)c1,,inactive: 6.94%
COc1cccc(C(=O)Nc2cccc(C(=O)N3CCOCC3)c2)c1,,inactive: -17.4%
O=C(NCc1ccc2c(c1)CCN2C(=O)c1ccccc1)Nc1cc(F)ccc1F,"inconclusive: 23.9 µM [inhibitor, partial curve, poor fit]",
CCOC(=O)Cc1ccc(NC(=O)Nc2ccccc2OCc2cc(=O)n3ccccc3n2)cc1,"inconclusive: 1.51 µM [inhibitor, partial curve, poor fit]",
Cc1nc(-c2cccc(NC(=O)c3ccco3)c2)cs1,"inconclusive: 23.9 µM [inhibitor, single point]",
O=C(NCc1ccc(Cl)cc1)c1ccc2ccccc2n1,"inconclusive: 23.9 µM [inhibitor, single point]",
CCC(C)c1ccc(NC(=O)C/C(C)=N/NC(=O)c2cnccn2)cc1 (stereo unspecified),"inconclusive: 33.8 µM [inhibitor, single point]",
Cc1cccc(N2CCN(S(=O)(=O)c3cnc[nH]3)CC2)c1C,,inactive: -0.749%
Cc1ccc(-c2csc3ncnc(NCCN4CCOCC4)c23)cc1,,inactive: 9.88%

SMILES,Potency,"activity change, negative = inhibition"
COc1ccc(-c2noc(-c3ccc(N4CCCC4)c([N+](=O)[O-])c3)n2)cc1,"inconclusive: 21.3 µM [inhibitor, single point]",
CCN1CCN(c2ncnc3c2cnn3-c2ccc(C)c(Cl)c2)CC1,"inconclusive: 13.5 µM [inhibitor, partial curve]",
COc1cc(/C=N/n2c(C)n[nH]c2=S)ccc1OCc1ccccc1,"inconclusive: 6.75 µM [inhibitor, single point]",
CC(Oc1ccc(F)cc1)C(=O)Nc1nc(-c2ccc(F)cc2)ns1 (stereo unspecified),"inconclusive: 12 µM [inhibitor, partial curve, poor fit]",
Cc1cc2[nH]c3c(c[n+](C)c4ccccc34)c2cc1C,"inconclusive: 23.9 µM [inhibitor, single point]",
COc1ccc(-n2c(C)c(C(C)=O)c3cc(OC(=O)c4ccc(C)cc4)ccc32)cc1,,inactive: -12.6%
CCNC(=S)NNC(=O)CCc1nc2cc(Cl)ccc2n(Cc2ccccc2)c1=O,,inactive: -0.768%
Cc1cccc(C(=O)O/N=C(\N)c2ccccn2)c1,active: 0.269 µM,
COc1cccc2sc(N)nc12,,inactive: 1.45%
Nc1nc(-c2ccccc2)cs1,"inconclusive: 33.8 µM [inhibitor, partial curve, poor fit]",
C[C@H](/C=C/[C@@]1(O)[C@H](C)C[C@H](O)CC1(C)C)O[C@@H]1O[C@H](CO)[C@@H](O)[C@H](O)[C@H]1O,"inconclusive: 16.9 µM [inhibitor, single point]",
CC1C(=O)C(C)C(c2cc(Cl)ccc2O)NC1c1cc(Cl)ccc1O (stereo unspecified),,inactive: 1.18%
Cc1ccc(NS(=O)(=O)c2ccc(C(=O)N3CCN(c4ccccn4)CC3)cc2)cc1,,inactive: 3.72%
COC(=O)c1cc2c(ccn2-c2ccc(F)cc2)n1Cc1ccc(OC(C)=O)cc1,"inconclusive: 21.3 µM [inhibitor, partial curve, poor fit]",
Nc1sc2c(c1C(=O)NCCc1ccccc1)CCC2,"inconclusive: 26.9 µM [inhibitor, partial curve, poor fit]",
CCN(CC)c1ccc(/C=N/n2c(C)nc3ccccc3c2=O)cc1,"inconclusive: 37.9 µM [inhibitor, single point]",
Cn1c(-c2sccc2OCc2ccc(Cl)cc2Cl)n[nH]c1=S,"inconclusive: 33.8 µM [inhibitor, single point]",
O=C(CCC(=O)N1CCSc2ccccc21)NCc1ccccc1,,inactive: -0.376%
CCCCNC(=O)c1ccc2nc(-c3ccco3)c(-c3ccco3)nc2c1,"inconclusive: 21.3 µM [inhibitor, single point]",
CC1(C)OC2OC(COC(=O)c3ccc([N+](=O)[O-])cc3)C3OC(C)(C)OC3C2O1 (stereo unspecified),,inactive: 0.646%
Nc1ccc(C(=O)N/N=C/c2cn(Cc3ccc(F)cc3)c3ccccc23)cc1,"inconclusive: 19 µM [inhibitor, partial curve]",
Cc1ccc(NC(=O)CCn2nc(C)c(S(=O)(=O)N3CCCCC3)c2C)cc1Cl,,inactive: -12.1%
COc1ccc(CCN=Cc2ccccc2O)cc1OC,,inactive: -5.62%
